Drawing on PubChem BioAssay AID1346428 (National Center for Advancing Translational Sciences (NCATS), 2018), this text covers activation for 84 molecules.

The campaign covered roughly 48,000 compounds. About 1,200 (2.5%) were called active. About 2% were inconclusive and are not listed.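 The calls were made as follows: active = activation of at least 60% and not above a set upper limit (about 1 call in 100 departs from these limits); inconclusive = activation of 40% to 60%, or above that upper limit; inactive = activation under 40%.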 The list shows a part of the results.

The target of the test is Probable G-protein coupled receptor 32 (Homo sapiens) (UniProt O75388). The test can be described thus: qHTS for Agonists of Human Resolvin D1 Receptor DRV1. Also: 0% is about no effect. Particulars: CHO-K1 GPR32 beta-arrestin PathHunter luminescence, 90 min; at 76.9 µM; stronger effect = higher value; zero percent set by DMSO-only wells. The essentials: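 Step 1: seed CHO-K1 GPR32 beta-arrestin cells, 2,500/well, overnight at 37 °C. Step 2: add compounds, 90 min at 37 °C. Step 3: detection reagent, 1 h ambient, then luminescence.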
UniProt O75388, sequence (O75388 whole entry, looked up): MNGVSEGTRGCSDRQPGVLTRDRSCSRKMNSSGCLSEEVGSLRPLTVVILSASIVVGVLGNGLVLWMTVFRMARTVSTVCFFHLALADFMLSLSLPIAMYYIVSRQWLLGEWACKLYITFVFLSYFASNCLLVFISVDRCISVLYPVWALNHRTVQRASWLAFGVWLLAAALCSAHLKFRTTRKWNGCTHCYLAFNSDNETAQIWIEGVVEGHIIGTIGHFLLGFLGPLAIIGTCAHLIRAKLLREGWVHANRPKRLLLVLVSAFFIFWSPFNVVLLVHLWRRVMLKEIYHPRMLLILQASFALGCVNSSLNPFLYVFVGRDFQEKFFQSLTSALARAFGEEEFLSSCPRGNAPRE
`Cc1cccc(C(=O)OCc2cc(=O)n3nc(-c4cccs4)sc3n2)c1`: the activation was inactive: -4.92%. The value for `CC(=O)c1ccc2c(c1)N(CCCN1CCC(CCO)CC1)c1ccccc1S2` was inactive: 2.6%; that for `CC(C)(C)OC(=O)N1CCC(c2c(C(=O)N3CCCCC3)cnn2-c2ccc(F)cc2F)CC1` was inactive: -8.13%; that for `Cn1c(Oc2ccccc2)nc2c1c(=O)n(Cc1ccc(Cl)cc1Cl)c(=O)n2C` was inactive: 15.5%.

With `Cc1ccc(-n2ncc(C(=O)NCCCN3CCN(C)CC3)c2C2CCN(C(=O)OC(C)(C)C)CC2)c(C)c1`, the activation was inactive: -20.7%. As to `CCCC(=O)Nc1ccc(NC(=O)c2sc3ccccc3c2Cl)cc1`, the activation is inactive: 9.44%. The value for `CCc1ccc2nc(N(Cc3cccnc3)C(=O)c3cccs3)sc2c1` was inactive: -27.5%. As for `NS(=O)(=O)c1cccc2c1c([N+](=O)[O-])cc1nc(O)c(O)nc12`, the activation is inactive: -25.3%. With `COCCn1c(SCC(=O)c2ccccc2)nc2cc(C(=O)NC3CCCC3)ccc2c1=O`, the activation is inactive: 0.748%. Consider `CC(=O)c1cccc(NC(=O)c2noc3c2CC(C)CC3)c1` (centres undefined), for which the activation is inactive: -18.5%. As to `CCOC(=O)CSC1=Nc2ccccc2C2=NC(CCC(=O)NCc3ccccc3)C(=O)N12` (centres undefined), the activation was inactive: 25.1%. `COc1ccc(NC(=O)CN(c2cccc(C)c2C)S(=O)(=O)c2ccccc2)cc1OC`: the activation is inactive: 12.3%. To `Cc1cc2c(cc1C)C(c1cccc(OC(C)C)c1)CC(=O)N2` (centres undefined) belongs inactive: 36%; to `CCCCN(C)CCCNC(=O)Cn1nc(CC)n2c(cc3sc(C)cc32)c1=O`, inactive: -34.8%; to `COc1ccc(C(=O)N2CCN(C(=O)COc3ccc(Br)cc3)CC2)cc1OC`, inactive: 7.25%. To `CC1CN(C(=O)N2CCC(C(=O)NCCC3=CCCCC3)CC2)c2ccccc2O1` (centres undefined) belongs inactive: -9.03%; to `COc1cc2c(=O)c(S(=O)(=O)c3ccc(C)cc3)cn(Cc3cccc(C)c3)c2cc1OC`, inactive: -2.61%; to `CCCCNC(=O)C1CCCN(c2nnc(C)c3c(C)n(-c4ccc(Cl)cc4)nc23)C1` (centres undefined), inactive: 0.781%.

On to `O=C(CSc1nnc(-c2cccs2)o1)Oc1ccc(Cl)cc1`, for which the activation is inactive: 5.87%. On to `COc1cc([C@@H]2c3cc4c(cc3[C@H](O)C3COC(=O)[C@@H]32)OCO4)cc(OC)c1OC` (some centres undefined), for which the activation was inactive: -7.02%. As to `CSc1cccc(NC(=O)C2CCN(S(=O)(=O)c3ccc4[nH]c(=O)ccc4c3)CC2)c1`, the activation is inactive: 26.1%.

For the molecule `CC(C)c1ccc(S(=O)(=O)Nc2ccc(O)c(Sc3nc4ccccc4s3)c2)cc1`, the activation is active: 70.6%. As to `CC(=O)c1ccc(NC(=O)CSc2nccn2Cc2ccco2)cc1`, the activation was inactive: -16.1%. With `CCN(CC)CCN(C(=O)c1ccc(C(=O)OC)cc1)c1nc2ccc(Cl)cc2s1`, the activation is inactive: 15.9%. To `CCOC(=O)C1(C)C=C(Nc2ccc(C)cc2)C(=O)N1c1ccccc1` (centres undefined) belongs inactive: -2.68%; to `COc1cc(Cl)c(C)cc1NC(=O)c1cnn(-c2ccc(C)cc2)c1-n1cccc1`, inactive: -6.48%; to `c1coc(-c2nc3ccccn3c2Nc2ccc3c(c2)OCCO3)c1`, inactive: 2.25%.

`CCOc1ccc(NC(=O)CCS(=O)(=O)c2ccc3nc(C)sc3c2)cc1`: the activation was inactive: -11.4%. To `Cc1nc(-c2ccc(C)c(N3CCN(C(=O)Nc4ccc(Br)cc4)CC3)c2)no1` belongs inactive: -0.389%.

On to `CCn1cc(S(=O)(=O)c2cccc(C)c2)c(=O)c2cc(F)c(N3CCCCC3C)cc21` (centres undefined), for which the activation was inactive: 0.457%. To `COc1ccc(-n2c(=O)c3sc4ccccc4c3n(CC(=O)N3CCCC3)c2=O)cc1` belongs inactive: -8.99%; to `Cc1ccc(Cn2c(SCc3ccc(C(=O)NCCc4ccccc4)cc3)nc3ccncc32)cc1`, inactive: -21.3%; to `COc1ccc(-c2cn3c(n2)sc2cc(C(=O)Nc4ccccc4F)ccc23)cc1`, inactive: -5.15%. Consider `COc1ccc(-n2c(SCC(=O)N3CCCc4ccccc43)nc3c([nH]c4ccccc43)c2=O)cc1`, for which the activation is inactive: 34.6%. The value for `CN(C)CCNC(=O)c1ccc2nc(CCc3ccccc3)oc2c1` was inactive: 10.3%; that for `CCc1ccc2occ(CC(=O)Nc3c(C(=O)Nc4ccc(Cl)cc4)oc4ccccc34)c2c1` was inactive: -2.73%.

`Cc1cc(-c2ccc(C)c(S(=O)(=O)N(Cc3cccs3)C(C)C)c2)on1`: the activation is inactive: -14.9%.

On to `COc1ccc(NC(=O)/C(C#N)=C/c2ccc(C)o2)cc1`, for which the activation was inactive: 12%.

`CC(C)(C)OC(=O)N1CCC(c2c(C(=O)Nc3ccc4c(c3)OCO4)cnn2-c2ccc(F)cc2F)CC1`: the activation was inactive: -22.5%.

`Cc1ccc(CNC(=O)C(=O)NCC(c2cccs2)S(=O)(=O)c2cccs2)cc1` (centres undefined): the activation was inactive: -12.1%.

Turning to `CC1CCCN(c2ncnc3c2nc2n3CCCCC2)C1` (centres undefined), the activation is inactive: 20.8%. In the case of `CN(C)c1ccc(CNc2nc(-c3ccco3)nn2S(C)(=O)=O)cc1`, the activation was inactive: -15.1%. To `O=C(O)CCCC(=O)N1CCc2cc(S(=O)(=O)NCc3ccccc3)ccc21` belongs inactive: 5.51%. The value for `CCOC(=O)c1[nH]c2c(c1Cc1ccccc1)C(=O)CC(c1ccc(OC)cc1)C2` (centres undefined) was inactive: -8.64%. To `Cc1cccc(NC(=O)CCNS(=O)(=O)c2ccc3c(c2)CCCC(=O)N3)c1C` belongs inactive: 9.61%; to `Cc1ccccc1Cn1c(=O)n(CCCCC(=O)NCCc2ccccc2)c(=O)c2ccccc21`, inactive: 13.8%. Turning to `CCc1ccc(NC(=O)CSC2=Nc3ccccc3C3=NC(CC(=O)NCc4ccc5c(c4)OCO5)C(=O)N23)cc1` (centres undefined), the activation is inactive: -12.2%. On to `CN(C)c1ccc(NC(=O)Cn2c(SCc3ccc(F)cc3)nc3cccnc32)cc1`, for which the activation is inactive: -15.4%.

Take `CCCCCC[C@@H](CCC)C(=O)O`: the activation was inactive: -4.98%. As to `CCc1ccccc1NC(=O)CC(C)n1nc(C)cc1C` (centres undefined), the activation was inactive: -0.387%. Consider `CCOC(=O)c1c(S(=O)(=O)N2CCN(c3ccccc3OC)CC2)c(C)n(C)c1C`, for which the activation is inactive: -2.39%.

On to `Cc1ccc(N2C(=O)c3n[nH]c(C)c3C2c2ccc(C(C)C)cc2)cc1` (centres undefined), for which the activation was inactive: 22.3%. The value for `COc1cccc(C(=O)Nc2ccccc2-c2nc(-c3ccc(C)cc3)no2)c1` was inactive: 2.33%; that for `c1ccc(N2CCN(c3ncnc4[nH]ncc34)CC2)cc1` was inactive: 45.9%; that for `COc1cc(OC)c(NC(=O)NCc2ccc3c(c2)CCN3C(C)=O)cc1Cl` was inactive: -13.2%. To `O=c1c2cc3c(cc2n(Cc2cccc(F)c2)c(=O)n1Cc1nc(-c2ccccc2)no1)OCO3` belongs inactive: -9.78%; to `CCCCC(CC)CN1CN(CC(CC)CCCC)CC(C)(N)C1` (centres undefined), inactive: 5.74%. For `COc1cc2c(cc1OC)C(=O)C(CC1CCN(Cc3ccccc3)CC1)C2` (centres undefined), the activation is inactive: 3.93%. The value for `CCc1ccc(NCc2cc3ccc(OC)cc3n(CC(=O)Nc3cccc(Cl)c3C)c2=O)cc1` was inactive: -21.5%; that for `COc1ccc(S(=O)(=O)N(CCc2ccccc2)CC(=O)NCc2ccccc2)cc1OC` was inactive: 13.3%. The value for `COCCN1C(=O)c2[nH]nc(-c3c(C)cc(C)cc3O)c2C1c1cccc(O)c1` (centres undefined) was active: 85%; that for `Cc1ccc(Cl)cc1NC(=O)c1cccc(NC(=O)N2CCSc3ncccc32)c1` was inactive: 4.96%. The value for `CCOc1ccc(NC(=O)C2CCCN(c3nnc(-n4c(C)ccc4C)s3)C2)cc1` (centres undefined) was inactive: -16.3%; that for `CC(C)(C)OC(=O)N1CCC(c2c(C(=O)N3CCN(C(=O)c4ccco4)CC3)cnn2-c2ccc(Cl)cc2)CC1` was inactive: -2.57%; that for `CCCNS(=O)(=O)c1cc(-c2nnc3c4ccccc4c(C)nn23)ccc1OC` was inactive: -29%. As to `CCc1ccccc1N1C(=O)N(Cc2cccc(Cl)c2)c2ccccc2S1(=O)=O`, the activation is inactive: -7.24%. The value for `CC(=O)c1ccc(NC(=O)C2CCC(CNS(=O)(=O)c3cccc4nsnc34)CC2)cc1` (centres undefined) was inactive: 21.3%; that for `Cc1cccn2c(=O)c(C(=O)NCCc3ccc(Cl)cc3)cnc12` was inactive: -7.56%. The value for `NC(N)=NCc1cccc(I)c1` was inactive: 4.27%.

In the case of `Cc1ccc(C(=O)NCc2nnnn2-c2ccc(C)c(C)c2)cc1`, the activation was inactive: -8.2%. The value for `Cc1ccc(-c2nnc(Nc3ccc(Br)cc3)c3ccccc23)cc1S(=O)(=O)NCc1nc2ccccc2[nH]1` was inactive: -20.4%. To `COCCNc1cc(N2CCN(C3CCCCC3)CC2)c2noc3c2c1C(=O)c1ccccc1-3` belongs inactive: -11.9%; to `CCOc1ccccc1NC(=O)c1ccc2c(c1)CCCN2S(C)(=O)=O`, inactive: 4.04%. The value for `O=C(Nc1ccc2nn(-c3ccc(F)cc3)nc2c1)c1cccc2c(Cl)cccc12` was inactive: 28.8%.

For the molecule `O=C(C1COc2ccccc2O1)N(Cc1cccnc1)c1nc2c(F)cc(F)cc2s1` (centres undefined), the activation is inactive: -4.62%. As for `Cc1ccc(C(=O)Nc2nnc(SCc3cc(=O)c4c(C)ccc(C)c4[nH]3)s2)cc1`, the activation was active: 70.6%. Regarding `Cc1ccc(Cl)cc1N1CCN(C(=O)c2c(C)oc3ncnc(N4CCOCC4)c23)CC1`, the activation is inactive: -5.07%. Take `COc1cccc(C(=O)N2CCC(N3CCN(Cc4ccc(F)cc4)C(=O)C3=O)CC2)c1`: the activation is inactive: -6.7%. With `CCOc1ccccc1NC(=O)c1c(NCc2ccc(OC)c(OC)c2OC)sc2c1CCC(C)C2` (centres undefined), the activation is inactive: 20.9%. To `CCc1nnc(SCc2nc(-c3ccccc3F)oc2C)c2cc3sccc3n12` belongs inactive: -8.02%; to `Cc1cc(C)cc(OCC(=O)Nc2ccc(-c3nc4ncccc4o3)cc2C)c1`, inactive: -6.11%; to `COC(=O)c1cccc(Nc2c(-c3cc(Br)ccc3O)nc3nc[nH]n23)c1`, inactive: -44.5%. On to `Cc1ccc(OCC(=O)Nc2cccc(C(=O)OCc3cc(=O)n4cc(C)sc4n3)c2)cc1`, for which the activation is inactive: -20.2%.

Consider `Cc1cccc(-c2noc(-c3ccc(NC4CCCC4)c([N+](=O)[O-])c3)n2)c1`, for which the activation was inactive: 7.98%.
